Measurements: PubChem BioAssay AID588855 (National Center for Advancing Translational Sciences (NCATS), 2011)
The campaign covered roughly 410,000 compounds. About 5,000 (1.2%) were called active. The shares of active, inactive and inconclusive entries below differ from those in the screen. The call rests on the fitted dose curve; in most records, active means well fitted inhibition curve with a large enough effect; inconclusive means small, poorly fitted or top-dose-only effect; inactive means no such curve, though single readings can be large or run the other way. Where the call is inconclusive, the potency comes from a doubtful curve fit.

Experiment: qHTS for Inhibitors of TGF-b; further: nearly all actives have a fitted effect of over 65% in size
Conditions: HepG2 CAGA-GFP TGF-b/SMAD3 reporter, GFP fluorescence, 18 h, TGF-beta stimulated, 500 pg/mL final; series mostly up to 46.1 µM; activity, negative = inhibition: at the top concentration
In short: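 Inhibition was scored as loss of TGF-beta-induced (500 pg/mL final, 18 hours, 37 degrees C) GFP in HEPG2 cells carrying a CAGA-GFP reporter, in DMEM with 1% FBS. Well GFP was summed per cell; Activity was normalised to unstimulated and stimulated DMSO wells, then concentration-response fitting.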
On the % scale 0 is the no-effect control and ±100 the full control effect; potency means the concentration at half of the fitted maximal effect; tags describe the fitted curve by direction and shape.

| Structure (SMILES) | Potency | activity, negative = inhibition |
| --- | --- | --- |
| CC(C)Cn1cc(C(=O)N2CCN(c3cccc(Cl)c3)CC2)c2c3ccccc3n(C)c2c1=O | inconclusive: 3.16 µM [inhibitor, partial curve, poor fit] |  |
| COc1cc(OC)c(OC)cc1CN1CCN(Cc2ccc(C(F)(F)F)cc2)CC1 | inconclusive: 35.5 µM [inhibitor, single point] |  |
| O=C(C[C@H]1C[C@H](C(=O)N2CCCCC2)[C@@]2(CCc3ccccc3)c3[nH]c4cc(-c5ccco5)ccc4c3CCN2C1=O)NCc1ccco1 |  | inactive: -32.4% |
| CN(c1ccccc1)S(=O)(=O)c1ccc(C(=O)Nc2nnc(C3=COCCO3)o2)cc1 |  | inactive: -22.3% |
| CC(=O)N1CCCc2cc(S(=O)(=O)N3CCCC(C(=O)Nc4cccc(Cl)c4C)C3)ccc21 (centres undefined) |  | inactive: -24.9% |
| COc1ccc2nc3n(c(=O)c2c1)-c1ncccc1C(=O)NC3Cc1ccccc1 (centres undefined) |  | inactive: -2.67% |
| Clc1ccc2[nH]cc(-c3nnnn3-c3ccccc3)c2c1 | inconclusive: 35.5 µM [inhibitor, single point] |  |
| CCOC(=O)c1cnc2ccc(OCC)cc2c1Nc1cc(Cl)c(OC)cc1OC |  | inactive: -4.04% |
| COc1ccc(CCC(=O)Nc2nc3c(s2)CN(C)CC3)cc1OC | inconclusive: 35.5 µM [inhibitor, single point] |  |
| O=[N+]([O-])c1ccc(-c2nc(Cl)c3c(n2)CCCC3)o1 | inconclusive: 35.5 µM [inhibitor, single point] |  |
| CCC(C)Sc1cc(C(F)(F)F)c(C(=O)Nc2ccc(Cl)cc2)cn1 (centres undefined) | inconclusive: 12.6 µM [inhibitor, partial curve, poor fit] |  |
| CC(C)CN(/C=N/c1sc2c(c1C#N)CCCCC2)CC(C)C |  | inactive: -28.8% |
| Nc1c(-c2cccc(Cl)c2)cnn1-c1cccc(C(F)(F)F)c1 | inconclusive: 10 µM [inhibitor, partial curve, poor fit] |  |
| Cc1ccc(-c2nnc(SCC(=O)NC3CC3)o2)cc1 |  | inactive: 16.2% |
| O=C(c1ccc2c(c1)OCCO2)N1CCN(S(=O)(=O)c2c(F)cccc2F)CC1 | inconclusive: 3.55 µM [inhibitor, partial curve, poor fit] |  |
| CCCN(CCC)CCNC(=O)C1CCCN(S(=O)(=O)c2cccc3nsnc23)C1 (centres undefined) | inconclusive: 4.47 µM [inhibitor, single point] |  |
| CC1CCCN(C2=C(NS(=O)(=O)c3ccc(Br)cc3)C(=O)c3ccccc3C2=O)C1 (centres undefined) |  | inactive: -0.662% |
| CCn1c(COc2ccc(=O)n(-c3ccccc3)n2)nnc1SCc1ccc(C)cc1 |  | inactive: -39.3% |
| COc1ccc(S(=O)(=O)NC(CC(=O)NCCc2ccc(OC)c(OC)c2)c2ccco2)cc1 (centres undefined) |  | inactive: -42.9% |
